Laboratory results as given in PubChem BioAssay AID1345082 (National Center for Advancing Translational Sciences (NCATS), 2018).
In all, about 94,000 compounds went through this assay and about 4,000 (4.3%) were called active. Inconclusive means that the source gave no clear call. Such entries were picked first, then a sample of the others. Calls come from the whole dose curve; as a rule, active = well fitted inhibition curve with a large enough effect; inconclusive = small, poorly fitted or top-dose-only effect; inactive = no such curve, though single readings can be large or run the other way. Potencies beside an inconclusive call are fits to weak or partial responses and may not hold up.

Assay: Cytotoxic Profiling in NIH 3T3 Cell Line of Diverse Libraries Using Quantitative High-Throughput Screening; note: nearly all actives have a fitted effect of over 55% in size
Details: NIH 3T3 viability, CellTiter-Glo ATP luminescence, 48-72 h; series mostly up to 96.7 µM
Summary of the method: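 Viability of NIH 3T3 cells after 48 or 72 hr compound treatment at 37 °C was assessed by CellTiter-Glo, with luminescence imaged following a 10 min room-temperature step.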
Potency is the fitted concentration of half-maximal effect; tags give direction and shape of the fitted curve.

SMILES | Potency
O=C(c1ccccc1Cl)N1CCn2c(nn(-c3ccc(C(F)(F)F)cc3)c2=O)C1 | inconclusive: 50.1 µM [inhibitor, partial curve, poor fit]
Cc1ccsc1C(=O)N1CCCC(n2cc(-c3nc(C4CC4)no3)nn2)C1 (stereo unspecified) | inconclusive: 25.1 µM [inhibitor, full curve, poor fit]
c1cc(-c2noc(C3CC3)n2)ccc1OC1CNC1 | inactive
CNc1cc(C)nc(N2C[C@H]3CN(C(=O)N(C)C)C[C@@]3(C(=O)O)C2)n1 | inactive
COc1ccc(CN2CCCC3(CNc4ccccc4[S+](=O)([O-])N3)C2)cc1 (stereo unspecified) | inconclusive: 44.7 µM [inhibitor, partial curve, poor fit]
Cn1cc(CN2CCCC2c2ccccn2)c(-c2ccc(Oc3ccccc3)cc2)n1 (stereo unspecified) | inconclusive: 56.2 µM [inhibitor, partial curve, poor fit]
COCCN1CCC(N2CCN(S(=O)(=O)c3ccccc3)CC2)C1=O (stereo unspecified) | inactive
COc1cccc(CCNC(=O)c2c(C)noc2-c2ccco2)c1 | inconclusive: 39.8 µM [inhibitor, partial curve, poor fit]
CCOc1ccccc1CN1CCC2(CCN([S+](=O)([O-])c3cccs3)CC2)Oc2ccccc21 | inconclusive: 22.4 µM [inhibitor, partial curve, poor fit]
O=C(Cn1cccc1-c1nc(-c2ccc(F)cc2)no1)NCCC1=CCCCC1 | inactive
Cc1ccccc1C(=O)N1CCC2(CC1)C(=O)N(c1cccc(F)c1)C2c1ccccc1 (stereo unspecified) | active: 35.5 µM
O=C(N1CCOCC1)N1CCn2c(nnc2-c2cncc(Br)c2)C1 | inactive
Cc1ccc(C(=O)NCC2Cn3cccc3C(=O)N2CC(C)C)cn1 (stereo unspecified) | inactive
COc1ccc(C(=O)N2CCn3c(nn(-c4ccc(Cl)cc4)c3=O)C2)cc1 | inactive
Cn1cnc(S(=O)(=O)N2CCC(c3nc(C4CC4)no3)C2)c1 (stereo unspecified) | inactive
CCC1=C(C(=O)OC)C(c2ccccc2OC)N2C(CC(=O)N3CCCCC3C)=CSC2=N1 (stereo unspecified) | inconclusive: 50.1 µM [inhibitor, partial curve, poor fit]
O=C(NCc1cn[nH]c1-c1ccc(F)cc1)C1COc2ccccc2C1 (stereo unspecified) | inactive
Cc1nn(-c2ccccc2)c2c1C(C(C)C)N(C1CCN(C(=O)Cc3ccccn3)CC1)C2=O (stereo unspecified) | inconclusive: 56.2 µM [inhibitor, partial curve, poor fit]
COc1ccc(C(CC(=O)NCCC(C)C)c2c[nH]c3ccccc23)c(OC)c1 (stereo unspecified) | inconclusive: 50.1 µM [inhibitor, partial curve, poor fit]
O=C(NCc1cccc(Cl)c1)c1ccc2nnc(-c3cccc(C(F)(F)F)c3)n2c1 | active: 31.6 µM
O=S(=O)(c1ccc2c(c1)CCCC2)N1CCCC(Cn2cnc3cccnc32)C1 (stereo unspecified) | inconclusive: 44.7 µM [inhibitor, partial curve, poor fit]
O=C(CN1C(=O)C(c2ccccc2)=NC12CCCCCC2)NC1CCCCC1 | inconclusive: 50.1 µM [inhibitor, partial curve, poor fit]

SMILES | Potency
Clc1ccccc1C1(c2ccnc(-c3ccccn3)n2)CCNCC1 | inconclusive: 35.5 µM [inhibitor, full curve, poor fit]
Cc1nn(C)c(C)c1-c1ccnc(NCC2CC(=O)N(C3CCCC3)C2)n1 (stereo unspecified) | inactive
Cn1nccc1C(=O)N1CCCC(Cc2nc(C3CCOCC3)no2)C1 (stereo unspecified) | inactive
COC(=O)c1sc(NC(=O)CC[C@H]2NC(=O)c3ccccc3NC2=O)nc1C | inconclusive: 50.1 µM [inhibitor, partial curve, poor fit]
O=C(c1ccc2nnc(-c3cc[nH]c3)n2c1)N1CCOCC1 | inactive
Cc1cccc(C(=O)N2CCC(Oc3ccc(-c4noc(C(C)C)n4)cc3)C2)c1 (stereo unspecified) | inactive
CNC(=O)CCn1ncc2cc(OC3CCc4cccc(-c5ccccc5)c43)ccc21 (stereo unspecified) | inconclusive: 50.1 µM [inhibitor, partial curve, poor fit]
COCCC(=O)N1C[C@@H](Oc2ccccc2)C[C@@H]1C(=O)N1CCOCC1 | inconclusive: 79.4 µM [inhibitor, partial curve, poor fit]
CN(Cc1ccccc1)C(=O)Cn1c2c(c(=O)n1Cc1ccccc1)CCN(Cc1ccccc1)C2 | inconclusive: 17.8 µM [inhibitor, full curve, poor fit]
O=C(Nc1cc(-c2cccnc2)nn1-c1ccccc1)c1ccccc1F | inconclusive: 50.1 µM [inhibitor, partial curve, poor fit]
CC(C)c1ccc(C(=O)N2CC3CC(C2)[C@H]2CCCC(=O)N2C3)cc1 (stereo partly specified) | inactive
CN1CCCCCC(O)c2cc(C(=O)NC3CCN(Cc4ccccc4)CC3)ccc21 (stereo unspecified) | inconclusive: 11.2 µM [inhibitor, full curve, poor fit]
Cc1cc(C(=O)N2CCOC(CC(c3ccccc3)c3ccccc3)C2)no1 (stereo unspecified) | inactive
Cc1noc(C)c1C(=O)NC1CCCN(c2ccc3nnc(C4CC4)n3n2)C1 (stereo unspecified) | inactive
O=C(Cc1ccccc1)Nc1ccc([C@@H](O)[C@H]2COCC(=O)N2CC2CC2)cc1 | inactive
COc1ccc(Cn2c(=O)c(C(=O)N3CCN(Cc4ccccc4)CC3)nc3cccnc32)cc1 | inconclusive: 50.1 µM [inhibitor, partial curve, poor fit]
O=C(c1ccccc1Cl)N1CCC2(CC1)NC(=O)N(Cc1ccc(F)cc1)C2=O | inconclusive: 44.7 µM [inhibitor, partial curve, poor fit]
COc1ccccc1CN1CC(c2noc(C3CCCCC3)n2)CC1=O (stereo unspecified) | inconclusive: 50.1 µM [inhibitor, partial curve, poor fit]
COC(=O)C1=C(C)N=C2SC=C(CC(=O)NCc3ccccc3)N2C1c1ccccc1C (stereo unspecified) | inconclusive: 50.1 µM [inhibitor, partial curve, poor fit]
Cc1ccc([S+](=O)([O-])N2CCCC(C(=O)N3CCC(c4nc5ncccc5[nH]4)CC3)C2)cc1 (stereo unspecified) | inconclusive: 39.8 µM [inhibitor, partial curve]
O=C(NCCNC(=O)c1ccccn1)c1ccc(-c2cccc(C(F)(F)F)c2)cc1 | inconclusive: 50.1 µM [inhibitor, partial curve, poor fit]
COCCCNC(=O)C1CCCN1Cc1cccc(-c2cccc(OC)c2)c1 (stereo unspecified) | inconclusive: 70.8 µM [inhibitor, single point]

SMILES | Potency
COc1ccc(C(=O)N2CCC3(CC2)NC(=O)N(Cc2ccc(Cl)cc2)C3=O)cc1 | inconclusive: 50.1 µM [inhibitor, partial curve, poor fit]
O=C(Nc1cccc(-c2ccc(N3CCOCC3)nn2)c1)Nc1ccc2c(c1)CCC2 | inactive
CCN1C(=O)CCc2cc(NC(=O)Cc3ccc(F)cc3)ccc21 | inconclusive: 50.1 µM [inhibitor, partial curve, poor fit]
C#CCNC(=O)c1nc2cccnc2n(Cc2ccccc2)c1=O | inactive
Cc1cc(C[C@@H]2COC[C@@H]2NC(=O)Cc2c[nH]c(=O)n(C)c2=O)on1 | inactive
CSc1ccc(O[C@@H]2C=C(C(=O)N[C@@H](Cc3ccc(O)cc3)C(N)=O)C[C@@H](O)[C@H]2O)cc1C | inactive
C[C@@H]1C(=O)O[C@H]2[C@H]1CC[C@@]1(C)Cc3sc(NC(=O)CN(C)C)nc3[C@@H](C)[C@H]21 | inactive
O=C1CCN(C(=O)CCc2nc3ccccc3s2)CCCCCCN1 | inconclusive: 25.1 µM [inhibitor, full curve]
COc1ccc(C(=O)N2CCCC2C(=O)N2CCC(N3Cc4cccn4C3=O)CC2)cc1 (stereo unspecified) | inactive
O=C(Cc1ccc(F)cc1)N1CCN(C(=O)c2nnn3c2COC(c2ccc(F)cc2)C3)CC1 (stereo unspecified) | inactive
Cn1ccc2c(C(=O)NCc3cccnc3)nc(Nc3ccccc3)cc21 | inconclusive: 56.2 µM [inhibitor, partial curve, poor fit]
O=C(C1CCCN(Cc2cccc(-c3ccsc3)c2)C1)N1CCCC1 (stereo unspecified) | inconclusive: 56.2 µM [inhibitor, partial curve, poor fit]
O=C(C1CCCC1)N1CC2(CCN(Cc3ccc(Cl)cc3)C2)Cc2ccccc21 (stereo unspecified) | active: 39.8 µM
Fc1cccc(CN2CCNc3cc(Nc4ccccc4)ncc3C2)c1 | active: 44.7 µM
O=C(COc1cccc(-c2nnc3n2CCCC3)c1)N1CCN(c2ccc(F)cc2)CC1 | inconclusive: 35.5 µM [inhibitor, partial curve, poor fit]
NC(CN1CCCC1)C1CCCCC1 (stereo unspecified) | inactive
CC1(C)[C@H](Cc2cc(-c3ccccc3)on2)C[C@@H]1NS(C)(=O)=O | inconclusive: 100 µM [inhibitor, partial curve]
O=C1CCN(C(=O)Cc2ccccc2)CCCC(c2nc(-c3cnccn3)no2)CCN1 (stereo unspecified) | inactive
Cc1nc(N2CCC(NC(=O)c3cccc4[nH]ccc34)CC2)cc(C(F)(F)F)n1 | inconclusive: 44.7 µM [inhibitor, partial curve, poor fit]
Cc1ccc(C(=O)Nc2cc(-c3ccncc3)nn2C)cc1 | inconclusive: 56.2 µM [inhibitor, partial curve, poor fit]
COc1cccc(C(=O)NCCNC(=O)c2ccc(-c3cccc(OC)c3)cc2)c1 | inconclusive: 50.1 µM [inhibitor, partial curve, poor fit]
CC1(C(=O)NCc2cccc(F)c2)COCc2cnc(Nc3ccccc3)nc21 (stereo unspecified) | inconclusive: 100 µM [inhibitor, partial curve, poor fit]
